About 14,000 (4.5%) of roughly 310,000 compounds showed an effect of 50% or more. The effect is printed as a negative number. The list shows a part of the results.
These molecules were tested against human ether-à-go-go-related gene (hERG) potassium channel (human, UniProt Q12809) (assay: primary screen, population patch clamp on CHO cells stably expressing hERG).
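Further: peak tail current of the secondary pulse compared with the same well before compound.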

human ether-à-go-go-related gene (hERG) potassium channel, sequence (Q12809 whole entry, looked up): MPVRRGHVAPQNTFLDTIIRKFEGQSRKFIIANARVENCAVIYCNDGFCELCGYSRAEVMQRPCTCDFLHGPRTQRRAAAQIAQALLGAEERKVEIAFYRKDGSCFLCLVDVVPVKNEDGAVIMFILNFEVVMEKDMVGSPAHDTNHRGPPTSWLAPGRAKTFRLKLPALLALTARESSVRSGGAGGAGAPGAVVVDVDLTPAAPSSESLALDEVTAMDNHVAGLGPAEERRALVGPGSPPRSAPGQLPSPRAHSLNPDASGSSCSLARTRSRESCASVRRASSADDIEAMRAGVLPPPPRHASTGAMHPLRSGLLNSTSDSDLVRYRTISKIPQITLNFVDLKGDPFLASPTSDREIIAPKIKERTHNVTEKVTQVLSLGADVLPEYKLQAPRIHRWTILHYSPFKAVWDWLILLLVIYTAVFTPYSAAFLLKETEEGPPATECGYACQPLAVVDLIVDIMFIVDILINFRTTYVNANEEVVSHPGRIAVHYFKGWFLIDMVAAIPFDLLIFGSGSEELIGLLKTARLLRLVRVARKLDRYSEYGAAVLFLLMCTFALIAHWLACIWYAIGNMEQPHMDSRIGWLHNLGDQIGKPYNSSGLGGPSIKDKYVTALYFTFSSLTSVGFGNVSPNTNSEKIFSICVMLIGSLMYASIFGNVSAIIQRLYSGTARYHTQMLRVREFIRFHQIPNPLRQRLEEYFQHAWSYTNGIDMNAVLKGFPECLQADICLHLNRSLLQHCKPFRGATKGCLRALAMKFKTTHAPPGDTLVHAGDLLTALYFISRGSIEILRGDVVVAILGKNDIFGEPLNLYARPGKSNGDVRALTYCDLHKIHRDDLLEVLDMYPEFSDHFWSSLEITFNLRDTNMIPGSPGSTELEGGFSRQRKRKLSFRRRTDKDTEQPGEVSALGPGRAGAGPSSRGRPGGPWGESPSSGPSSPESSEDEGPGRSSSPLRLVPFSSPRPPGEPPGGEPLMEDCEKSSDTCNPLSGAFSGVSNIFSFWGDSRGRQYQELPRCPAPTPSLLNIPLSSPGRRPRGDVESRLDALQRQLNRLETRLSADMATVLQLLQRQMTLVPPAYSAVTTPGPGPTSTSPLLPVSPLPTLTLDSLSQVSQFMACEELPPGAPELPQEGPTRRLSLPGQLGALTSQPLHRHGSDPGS

Compound	hERG current change (%, negative = inhibition) at 10uM [%]
CC(NC(=O)CNC(=O)c1sc2ccccc2c1Cl)c1ccc(S(N)(=O)=O)cc1 (stereo not shown)	-34.2
O=C(NCc1cccs1)c1cc2c(s1)-c1ccccc1OC2	1.42
O=C(CN1C(=O)c2cccc3cccc(c23)C1=O)N1CCCCCC1	9.58
O=C(O)c1ccc(NC(=O)c2ccc3c(c2)C(=O)N(CC2CCCO2)C3=O)cc1 (stereo not shown)	13
CC1Cc2nc(SCC(=O)Nc3ccc4c(c3)OCO4)n(Cc3ccccc3)c(=O)c2S1 (stereo not shown)	-12.7
CC(C)n1c(C(O)c2ccc3c(c2)OCO3)nc2ccccc21 (stereo not shown)	0.158
C/C(=C\c1cc(C(=O)O)c(C)o1)CO	12.9
Cc1ccc(NC(=O)NNC(=O)c2cc3ccccc3cc2O)cc1C	23.7
Cl.O=C(NCCc1ccccn1)c1cc(-c2cccc3ccccc23)nc2ccccc12	-27.1
CCOC(=O)CSc1nnc(Cc2cc(=O)[nH]c(=O)[nH]2)n1-c1ccc(Cl)cc1	8.02
CC(C)OC(=O)CSc1nnc2c3ccccc3n(C)c2n1	-1.35
CCN(CC)C(=O)C1CCN(S(=O)(=O)c2ccc(-n3cnnn3)cc2)CC1	-30
O=C(NCCc1ccco1)c1cc(COc2cccc(C(F)(F)F)c2)on1	2.44
C[C@H](NC(=O)c1ccccc1)C(=O)Nc1nc(-c2ccccn2)cs1	19.2
CC(C)(C)NC(=O)CSc1nc2ccc(NC(=O)CSc3nnnn3Cc3ccccc3)cc2s1	6.17
Cc1ccc(C(=O)NCc2occc2C(=O)O)o1	10.2
CCNC(=O)C1CC(=O)N(CCCc2ccccc2)C(=Nc2ccccc2)S1 (stereo not shown)	11.4
COc1cccc(COC(=O)c2ccc3c(c2)NC(=O)C(C)S3)c1OC (stereo not shown)	18.4
O=C(COc1cccc(NC(=O)c2ccccc2)c1)c1ccc(F)cc1	-26
O=C(CSc1nnnn1Cc1ccccc1)Nc1cccc(F)c1	7.09
Cc1ccc(C(=O)N2CCCC2)c(F)c1F	-14.2
CN1C(=O)c2ccc(C(=O)NC3CCCCC3)cc2C1=O	11.2
Cc1cccc(NC(=O)c2nc[nH]c2C(=O)NCC(=O)OCc2ccccc2)c1	9.54
O=C(Cn1c(=O)oc2ccccc21)NC(=O)NCc1ccco1	17.1
COc1ccc(NC(=O)CCCSc2nc(-c3ccco3)cc(C(F)(F)F)n2)cc1OC	12.1
Cc1cc(C)nc(SCC(=O)Nc2ccnc3ccccc23)n1	11.1
COc1ccccc1-c1nnc(SC(C)C(=O)Nc2ccc(C(N)=O)cc2)o1 (stereo not shown)	8.39
COc1ccc(NC(=O)COc2nc3ccccc3nc2N2CCOCC2)c(OC)c1	12.3

Compound	hERG current change (%, negative = inhibition) at 10uM [%]
O=C(Nc1nc(-c2ccncc2)cs1)c1ccc(S(=O)(=O)N2CCOCC2)cc1	-0.166
CCOc1ccc(C2C(C(=O)c3ccc(C)o3)=C(O)C(=O)N2c2nc(C)c(C(=O)OC)s2)cc1 (stereo not shown)	9.24
Nc1nc(SCC(=O)Nc2cc(C(F)(F)F)ccc2N2CCOCC2)n[nH]1	16.1
O=C(O)C1Sc2[nH]c(=O)sc2C2c3cc(Cl)ccc3OC(=O)C12 (stereo not shown)	14.5
Cc1cc2oc(C(=O)NCc3ccccc3)cc(=O)c2cc1C	9.9
Oc1ccccc1N1CCN(c2ncnc3scc(-c4ccc(F)cc4)c23)CC1	6.31
CN(CCC#N)c1ncnc2scc(-c3ccccc3)c12	-26
COc1ccccc1NC(=O)CCC(=O)OCc1ccc([N+](=O)[O-])cc1	-44.8
CC(C)=C1C2CCC1C1C(=O)N(NC(=O)COc3ccc(C(C)(C)C)cc3)C(=O)C21 (stereo not shown)	-1.58
COc1ccc(OC)c(NC(=O)CSc2nnc(-c3ccncc3)s2)c1	16
CC(=O)Nc1ccccc1NC(=O)C/C(C)=N/NC(=O)C1CCCCC1	18
O=C(Cc1cccs1)Nc1nnc(CCc2ccccc2)s1	5.44
COC(=O)c1ccccc1OP1(=O)COc2ccccc2OC1	18.3
COc1ccc2nc(/N=C(\N)NC(=O)Nc3ccccc3)nc(C)c2c1	-44.4
CCNC(=O)/C(=C\c1ccc2c(c1)OCO2)NC(=O)c1ccc(Br)cc1	-69.7
COc1ccc(OC)c(S(=O)(=O)Nc2cccc(F)c2)c1	-7.42
Cc1ccc(-c2nnc(OCCN3CCOCC3)c3ccccc23)cc1	-43.4
CCOC(=O)c1ccccc1NC(=O)/C=C/c1cc(OC)c(OC)c(OC)c1	-8.29
CNS(=O)(=O)c1cc(NC(C)=O)c(C)cc1C	6.26
COc1cc(C2c3c(oc4ccccc4c3=O)C(=O)N2c2nccs2)ccc1O (stereo not shown)	22.9
Cc1c(C(=O)Nc2ccc3c(c2)OCCO3)sc2nc(-c3ccccc3)cn12	14.3
S=c1[nH]nc(CCc2ccc(Cl)cc2)o1	4.23
COc1ccc(/C=C/C(=O)c2ccccn2)cc1	21.4
CN(CC(=O)Nc1cccc(F)c1)C(=O)c1cccc(-n2cccc2)c1	-27.6
Cc1cc(C(=O)COC(=O)c2ccc(Cl)c(S(N)(=O)=O)c2)c(C)n1CC1CCCO1 (stereo not shown)	-12.6
C=CCn1c(O)c(/C(C)=N/N2CCCCC2)c(=O)[nH]c1=O	12.7
C#CCOCCOCCOCCNc1nc(N2CCOCC2)nc(N2CCN(C(=O)CCCCCCCCCCNC(=O)[C@H](CO)n3cc(CCCCCN)nn3)CC2)n1	8.07
